Reference: the supplement of paper PMC4166925
± gives the standard deviation of the averaged measurements. Over roughly 33,000 sequences, “E-score (dimensionless, -0.5 to 0.5)” has its median near -0.046; the highest 2% begin near 0.36. The list shows a part of the results.

System: T1, SpTbr T-box DNA-binding domain (GST fusion)
T1 sequence: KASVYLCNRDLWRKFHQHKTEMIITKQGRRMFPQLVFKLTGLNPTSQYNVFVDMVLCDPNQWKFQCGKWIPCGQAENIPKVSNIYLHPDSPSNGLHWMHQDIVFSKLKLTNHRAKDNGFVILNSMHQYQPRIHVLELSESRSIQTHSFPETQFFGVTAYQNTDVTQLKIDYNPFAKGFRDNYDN
Test: PBM E-score of 8-mer (E-score (dimensionless, -0.5 to 0.5)); Tbr is Tbrain of the sea star Patiria miniata (Pm) or the sea urchin Strongylocentrotus purpuratus (Sp); higher = stronger binding preference; most listed sequences are background and not binding sites
Details: the construct has about 5 more residues each side
Summary of the method: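 Expression of GST-fused Tbr T-box DNA-binding domains, each holding the full T-box plus roughly five flanking residues, was carried out in BL21 E. coli at 20 °C, with purification by glutathione affinity chromatography. Universal Agilent arrays made double-stranded by primer extension were incubated with the protein at 200 nM in PBS (pH 7.5), then scanned and quantified. All ungapped 8-mers were scored from probe intensities, and each received an enrichment E-score from the Universal PBM Analysis Suite, averaged over duplicate arrays.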

Which “PBM E-score of 8-mer” value does the source give for AGGTCACG here?
Its value is 0.208 ± 0.032.

How did the “PBM E-score of 8-mer” value turn out when ATATTAGC was run?
Its value is -0.0698 ± 0.021.

How did the “PBM E-score of 8-mer” value turn out when ATAGCGGC was run?
Its value is -0.0064 ± 0.035.

Which “PBM E-score of 8-mer” value does the source give for CCTAGCAC here?
Its value is 0.257 ± 0.016.

For AATGACAC, which “PBM E-score of 8-mer” value is on record?
The value was 0.3799 ± 0.0026.

Which “PBM E-score of 8-mer” value does the source give for GGGCCGGA here?
The value was -0.22 ± 0.022.

With GGTGCAAA as the sequence, how does the “PBM E-score of 8-mer” value read?
Its value is 0.3907 ± 0.0034.

ATACCAGA was tested. Which “PBM E-score of 8-mer” value did it give?
Its value is -0.23 ± 0.035.

For ACCAGACG, which “PBM E-score of 8-mer” value is on record?
Its value is -0.138 ± 0.13.

AATCAGGC was tested. Which “PBM E-score of 8-mer” value did it give?
Its value is -0.107 ± 0.036.

How did the “PBM E-score of 8-mer” value turn out when GTTAAAGA was run?
Its value is -0.133 ± 0.028.

How did the “PBM E-score of 8-mer” value turn out when ACCCTCCT was run?
The value was 0.0378 ± 0.0066.

Which “PBM E-score of 8-mer” value does the source give for GATTGAGC here?
Its value is -0.103 ± 0.009.

CAGTAGCA was tested. Which “PBM E-score of 8-mer” value did it give?
The value was 0.0713 ± 0.055.

With ACGTACGA as the sequence, how does the “PBM E-score of 8-mer” value read?
The value was -0.153 ± 0.03.

For ATGGCGAG, which “PBM E-score of 8-mer” value is on record?
The value was 0.152 ± 0.005.

CAGCCGTA was tested. Which “PBM E-score of 8-mer” value did it give?
The value was -0.195 ± 0.048.

For AGTATGGA, which “PBM E-score of 8-mer” value is on record?
Its value is -0.236 ± 0.03.

How did the “PBM E-score of 8-mer” value turn out when CACGATGA was run?
Its value is 0.139 ± 0.018.

With AGCCCGTG as the sequence, how does the “PBM E-score of 8-mer” value read?
Its value is -0.141 ± 0.034.

How did the “PBM E-score of 8-mer” value turn out when ACGTGTCC was run?
Its value is 0.0769 ± 0.048.

How did the “PBM E-score of 8-mer” value turn out when CTAGCTGA was run?
Its value is -0.0136 ± 0.11.

For AGTTATCC, which “PBM E-score of 8-mer” value is on record?
The value was -0.17 ± 0.075.

With TGCGGGAA as the sequence, how does the “PBM E-score of 8-mer” value read?
The value was -0.111 ± 0.031.

With GCTCAACC as the sequence, how does the “PBM E-score of 8-mer” value read?
Its value is -0.204 ± 0.025.

With GAAATTGA as the sequence, how does the “PBM E-score of 8-mer” value read?
The value was -0.122 ± 0.096.

AGTAAGAA was tested. Which “PBM E-score of 8-mer” value did it give?
The value was -0.154 ± 0.043.

How did the “PBM E-score of 8-mer” value turn out when AAGAGAAA was run?
Its value is -0.258 ± 0.023.

For GCATTCTA, which “PBM E-score of 8-mer” value is on record?
The value was -0.293 ± 0.06.

CGAAAGGA was tested. Which “PBM E-score of 8-mer” value did it give?
Its value is 0.0114 ± 0.0063.

For AAAGCACG, which “PBM E-score of 8-mer” value is on record?
The value was 0.0696 ± 0.013.

With CACCCCCA as the sequence, how does the “PBM E-score of 8-mer” value read?
The value was 0.246 ± 0.028.

How did the “PBM E-score of 8-mer” value turn out when AAGACCTG was run?
The value was -0.0573 ± 0.036.

AAAGCGAG was tested. Which “PBM E-score of 8-mer” value did it give?
Its value is -0.044 ± 0.048.

Which “PBM E-score of 8-mer” value does the source give for CCAAACAC here?
The value was 0.287 ± 0.023.

GCGTGGGA was tested. Which “PBM E-score of 8-mer” value did it give?
Its value is 0.00128 ± 0.029.

With AACCGCTG as the sequence, how does the “PBM E-score of 8-mer” value read?
The value was 0.0391 ± 0.007.

How did the “PBM E-score of 8-mer” value turn out when AATACCAG was run?
Its value is -0.214 ± 0.013.

Which “PBM E-score of 8-mer” value does the source give for AAAGCAAT here?
The value was -0.354 ± 0.069.

With AACACAAC as the sequence, how does the “PBM E-score of 8-mer” value read?
Its value is 0.197 ± 0.031.

For TGTCCTAA, which “PBM E-score of 8-mer” value is on record?
The value was -0.217 ± 0.01.

Which “PBM E-score of 8-mer” value does the source give for AAATACCA here?
The value was -0.147 ± 0.024.

How did the “PBM E-score of 8-mer” value turn out when GAAGCTAC was run?
The value was -0.0991 ± 0.033.

How did the “PBM E-score of 8-mer” value turn out when AGAGTATC was run?
The value was -0.133 ± 0.0068.

For GGCTTACA, which “PBM E-score of 8-mer” value is on record?
The value was -0.17 ± 0.044.

With TACGTATA as the sequence, how does the “PBM E-score of 8-mer” value read?
The value was -0.0478 ± 0.04.

How did the “PBM E-score of 8-mer” value turn out when AAGGGACA was run?
The value was -0.0762 ± 0.002.

GGATGGCA was tested. Which “PBM E-score of 8-mer” value did it give?
Its value is -0.14 ± 0.021.

For GGGGCGAA, which “PBM E-score of 8-mer” value is on record?
Its value is -0.12 ± 0.03.

Which “PBM E-score of 8-mer” value does the source give for ACTGTGCG here?
Its value is 0.112 ± 0.005.

With ATTGTGTG as the sequence, how does the “PBM E-score of 8-mer” value read?
The value was 0.279 ± 0.0062.

For ACCTCCGA, which “PBM E-score of 8-mer” value is on record?
Its value is 0.168 ± 0.02.

How did the “PBM E-score of 8-mer” value turn out when CCCACACG was run?
Its value is 0.15 ± 0.1.

With AGGTTTTG as the sequence, how does the “PBM E-score of 8-mer” value read?
The value was -0.0401 ± 0.02.

Which “PBM E-score of 8-mer” value does the source give for CACCCCCG here?
The value was 0.234 ± 0.018.

ACCGGTGA was tested. Which “PBM E-score of 8-mer” value did it give?
Its value is 0.145 ± 0.022.

For GCCCTCCA, which “PBM E-score of 8-mer” value is on record?
Its value is -0.1424 ± 0.0007.

For ATCTACCC, which “PBM E-score of 8-mer” value is on record?
Its value is -0.264 ± 0.03.

CCATTACG was tested. Which “PBM E-score of 8-mer” value did it give?
Its value is -0.081 ± 0.0088.

With ACAACTCT as the sequence, how does the “PBM E-score of 8-mer” value read?
Its value is 0.183 ± 0.002.

How did the “PBM E-score of 8-mer” value turn out when ACAACTGA was run?
The value was 0.0471 ± 0.052.

How did the “PBM E-score of 8-mer” value turn out when ATGTTGCG was run?
Its value is 0.15 ± 0.0049.

CATACTAG was tested. Which “PBM E-score of 8-mer” value did it give?
The value was -0.107 ± 0.01.

With AGATCAAC as the sequence, how does the “PBM E-score of 8-mer” value read?
Its value is -0.203 ± 0.047.

With AGGTACCA as the sequence, how does the “PBM E-score of 8-mer” value read?
Its value is -0.104 ± 0.075.

How did the “PBM E-score of 8-mer” value turn out when ATCTAAGC was run?
The value was -0.107 ± 0.031.

How did the “PBM E-score of 8-mer” value turn out when ATCCAACA was run?
The value was 0.125 ± 0.021.

With CCTGTATC as the sequence, how does the “PBM E-score of 8-mer” value read?
Its value is -0.0503 ± 0.015.

With GCCGAGTA as the sequence, how does the “PBM E-score of 8-mer” value read?
The value was -0.0238 ± 0.038.

With AAGGGAAA as the sequence, how does the “PBM E-score of 8-mer” value read?
Its value is -0.289 ± 0.05.

With CCGAAGCG as the sequence, how does the “PBM E-score of 8-mer” value read?
The value was 0.0241 ± 0.018.

With ACGAGGCC as the sequence, how does the “PBM E-score of 8-mer” value read?
Its value is -0.274 ± 0.043.

Which “PBM E-score of 8-mer” value does the source give for AACGGGGG here?
The value was 0.153 ± 0.011.

ATGGTGTG was tested. Which “PBM E-score of 8-mer” value did it give?
The value was 0.39 ± 0.023.

How did the “PBM E-score of 8-mer” value turn out when ACTTCCAC was run?
The value was -0.0342 ± 0.034.

For GCTTTCAC, which “PBM E-score of 8-mer” value is on record?
The value was 0.311 ± 0.012.

How did the “PBM E-score of 8-mer” value turn out when ACGCGAGT was run?
Its value is 0.107 ± 0.072.

With GGTCGACA as the sequence, how does the “PBM E-score of 8-mer” value read?
The value was 0.203 ± 0.045.

How did the “PBM E-score of 8-mer” value turn out when CATAGCAG was run?
Its value is 0.0783 ± 0.072.

With AGATATAG as the sequence, how does the “PBM E-score of 8-mer” value read?
The value was -0.138 ± 0.025.

AGGTCTAG was tested. Which “PBM E-score of 8-mer” value did it give?
Its value is -0.252 ± 0.04.

Which “PBM E-score of 8-mer” value does the source give for GATACCAC here?
The value was -0.105 ± 0.034.

Which “PBM E-score of 8-mer” value does the source give for ACGAGCTC here?
The value was -0.201 ± 0.018.

With TGTCTGAA as the sequence, how does the “PBM E-score of 8-mer” value read?
The value was 0.189 ± 0.047.

How did the “PBM E-score of 8-mer” value turn out when ATAGTGTA was run?
Its value is 0.0763 ± 0.038.

With GGGATACC as the sequence, how does the “PBM E-score of 8-mer” value read?
Its value is -0.246 ± 0.071.
